Key:
[1] = target: T1, biotinylated interleukin 8 (IL8-biotin) (human, UniProt P10145 21-99, reacted with biotin-XX-NHS ester (1 mM); labelled residues not stated); assay: solution equilibrium with 1e-10 M biotin-IL-8, B/F vs B plot, free Fab by sandwich ELISA
T1 construct: mature; also called IL-8 labeled with biotin; biotinylated IL-8
T1 sequence: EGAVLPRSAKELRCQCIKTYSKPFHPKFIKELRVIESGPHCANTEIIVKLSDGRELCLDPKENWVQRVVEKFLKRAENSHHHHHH

[2] = target: T1, biotinylated interleukin 8 (IL8-biotin); assay: fraction of Fab bound by a large excess of biotin-IL-8, removed on avidin magnetic latex

B1: M2-12 (Fab)
heavy: DVQLVESGGGVVHPGRSLRLSCAASGFTFSYYGMHWVRQAPGKGLEWMTLISYDGDNKYYADSVKGRFTISRENSKNTLYLQMNSLRAEDTAVYYCARDGIGYFDYWGQGTLVTVSSASTKGPSVFPLAPSSKSTSGGTAALGCLVKDYFPEPVTVSWNSGALTSGVHTFPAVLQSSGLYSLSSVVTVPSSSLGTQTYICNVNHKPSSTKVDKKAEPKSHHHHHH
light: EIVMTQSPGTLSLSPGERATLSCRASQGVSSSYLAWYQQKPGQAPRLLIYGASSRATGIPDRFSGSGSGTDFTLTISSLEPEDFAVYYCQQYGSSPPYTFGQGTKLEIKRTVAAPSVFIFPPSDEQLKSGTASVVCLLNNFYPREAKVQWKVDNALQSGNSQESVTEQDSKDSTYSLSSTLTLSKADYEKHKVYACEVTHQGLSSPVTKSFNRGESYPYDVPDYAS
notes: also called M2_12H; M2_12L
Question: B1 was tested. Which Ka [1] did it give?
Answer: 2.8e+11 M⁻¹

Question: And the “% Immunoreactive Protein” value [2]?
Answer: 93%
